According to US20210008172A1 (OPKO BIOLOGICS, published 2021):

Assays:
[1] = molecular target: T1, IGFBP3 (rhIGFBP3, R&D, #675-B3-025) (human, UniProt P17936); assay: SPR (BIAcore #b); rhIGFBP3 immobilized, IGF1 variant injected
T1 construct: Bought reagent, immobilized on the BIAcore sensor surface

[2] = molecular target: T2, recombinant IGF1 receptor fused to one fragment of beta-galactosidase, over expressed on cells (DISCOVERX … (UniProt P08069 31-1367)); assay: cell-based or functional assay
[3] = molecular target: T3, insulin receptor (cell based assay) (UniProt P06213); assay: cell-based or functional assay
[4] = molecular target: T1, IGFBP3 (rhIGFBP3, R&D, #675-B3-025); assay: SPR (BIAcore), average KD against Increlex
[5] = molecular target: T3, insulin receptor (cell based assay); assay: cell-based or functional assay; remark: listed apart in the source
[6] = molecular target: T1, IGFBP3 (rhIGFBP3, R&D, #675-B3-025); assay: SPR (BIAcore #a); rhIGFBP3 immobilized, IGF1 variant injected
[7] = molecular target: T1, IGFBP3 (rhIGFBP3, R&D, #675-B3-025); assay: SPR (BIAcore #c); rhIGFBP3 immobilized, IGF1 variant injected
[8] = molecular target: T1, IGFBP3 (rhIGFBP3, R&D, #675-B3-025); assay: SPR (BIAcore), average; rhIGFBP3 immobilized, IGF1 variant injected
[9] = molecular target: T2, recombinant IGF1 receptor fused to one …; assay: cell-based or functional assay; remark: listed apart in the source
[10] = molecular target: T2, recombinant IGF1 receptor fused to one …; assay: cell-based or functional assay; remark: listed apart in the source
[11] = molecular target: T3, insulin receptor (cell based assay); assay: cell-based or functional assay; remark: listed apart in the source
[12] = molecular target: T1, IGFBP3 (rhIGFBP3, R&D, #675-B3-025); assay: SPR (BIAcore); one figure told of MOD-1301-4 and MOD-1301-5 together

T2 sequence (P08069 31-1367): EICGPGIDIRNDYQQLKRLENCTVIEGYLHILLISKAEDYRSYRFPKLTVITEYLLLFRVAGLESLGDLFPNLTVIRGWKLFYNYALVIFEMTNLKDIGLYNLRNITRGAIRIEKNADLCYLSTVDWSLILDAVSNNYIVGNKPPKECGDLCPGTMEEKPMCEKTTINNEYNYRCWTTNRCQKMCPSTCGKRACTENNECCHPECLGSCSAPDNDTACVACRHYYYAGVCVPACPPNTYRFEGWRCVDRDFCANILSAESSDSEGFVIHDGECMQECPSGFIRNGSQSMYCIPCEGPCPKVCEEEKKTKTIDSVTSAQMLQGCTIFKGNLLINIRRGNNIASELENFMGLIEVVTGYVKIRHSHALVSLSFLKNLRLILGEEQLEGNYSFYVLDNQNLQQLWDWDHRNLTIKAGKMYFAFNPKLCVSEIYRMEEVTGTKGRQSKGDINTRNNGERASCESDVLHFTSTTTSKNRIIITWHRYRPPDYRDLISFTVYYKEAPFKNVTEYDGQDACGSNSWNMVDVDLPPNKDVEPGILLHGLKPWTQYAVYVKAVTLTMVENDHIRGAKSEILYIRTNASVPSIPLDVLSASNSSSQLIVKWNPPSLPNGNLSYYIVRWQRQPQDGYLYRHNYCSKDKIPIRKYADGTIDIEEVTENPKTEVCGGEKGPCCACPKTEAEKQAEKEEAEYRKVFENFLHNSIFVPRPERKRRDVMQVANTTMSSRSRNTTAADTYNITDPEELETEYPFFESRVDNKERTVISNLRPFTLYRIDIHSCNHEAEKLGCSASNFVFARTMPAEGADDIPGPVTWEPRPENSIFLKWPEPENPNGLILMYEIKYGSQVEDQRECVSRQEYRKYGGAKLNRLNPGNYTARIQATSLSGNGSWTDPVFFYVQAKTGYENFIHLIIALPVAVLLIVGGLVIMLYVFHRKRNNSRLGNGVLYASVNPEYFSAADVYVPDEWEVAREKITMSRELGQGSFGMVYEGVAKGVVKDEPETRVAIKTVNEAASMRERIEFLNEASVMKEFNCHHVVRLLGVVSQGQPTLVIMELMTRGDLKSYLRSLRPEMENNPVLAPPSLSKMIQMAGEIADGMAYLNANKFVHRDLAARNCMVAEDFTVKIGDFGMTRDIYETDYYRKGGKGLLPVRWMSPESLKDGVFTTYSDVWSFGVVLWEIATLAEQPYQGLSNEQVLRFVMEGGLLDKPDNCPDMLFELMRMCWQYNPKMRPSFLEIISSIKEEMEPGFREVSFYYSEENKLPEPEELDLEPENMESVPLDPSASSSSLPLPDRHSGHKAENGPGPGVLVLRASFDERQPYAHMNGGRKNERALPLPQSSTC
T1 sequence (P17936 28-291 limits assumed): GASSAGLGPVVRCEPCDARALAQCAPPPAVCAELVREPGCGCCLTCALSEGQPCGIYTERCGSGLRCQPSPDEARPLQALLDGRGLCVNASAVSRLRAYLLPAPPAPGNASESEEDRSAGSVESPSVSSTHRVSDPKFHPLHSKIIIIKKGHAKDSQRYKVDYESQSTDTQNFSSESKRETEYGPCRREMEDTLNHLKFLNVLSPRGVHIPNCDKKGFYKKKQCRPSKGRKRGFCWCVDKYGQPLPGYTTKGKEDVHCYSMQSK
T3 sequence (P06213 28-1382 limits assumed): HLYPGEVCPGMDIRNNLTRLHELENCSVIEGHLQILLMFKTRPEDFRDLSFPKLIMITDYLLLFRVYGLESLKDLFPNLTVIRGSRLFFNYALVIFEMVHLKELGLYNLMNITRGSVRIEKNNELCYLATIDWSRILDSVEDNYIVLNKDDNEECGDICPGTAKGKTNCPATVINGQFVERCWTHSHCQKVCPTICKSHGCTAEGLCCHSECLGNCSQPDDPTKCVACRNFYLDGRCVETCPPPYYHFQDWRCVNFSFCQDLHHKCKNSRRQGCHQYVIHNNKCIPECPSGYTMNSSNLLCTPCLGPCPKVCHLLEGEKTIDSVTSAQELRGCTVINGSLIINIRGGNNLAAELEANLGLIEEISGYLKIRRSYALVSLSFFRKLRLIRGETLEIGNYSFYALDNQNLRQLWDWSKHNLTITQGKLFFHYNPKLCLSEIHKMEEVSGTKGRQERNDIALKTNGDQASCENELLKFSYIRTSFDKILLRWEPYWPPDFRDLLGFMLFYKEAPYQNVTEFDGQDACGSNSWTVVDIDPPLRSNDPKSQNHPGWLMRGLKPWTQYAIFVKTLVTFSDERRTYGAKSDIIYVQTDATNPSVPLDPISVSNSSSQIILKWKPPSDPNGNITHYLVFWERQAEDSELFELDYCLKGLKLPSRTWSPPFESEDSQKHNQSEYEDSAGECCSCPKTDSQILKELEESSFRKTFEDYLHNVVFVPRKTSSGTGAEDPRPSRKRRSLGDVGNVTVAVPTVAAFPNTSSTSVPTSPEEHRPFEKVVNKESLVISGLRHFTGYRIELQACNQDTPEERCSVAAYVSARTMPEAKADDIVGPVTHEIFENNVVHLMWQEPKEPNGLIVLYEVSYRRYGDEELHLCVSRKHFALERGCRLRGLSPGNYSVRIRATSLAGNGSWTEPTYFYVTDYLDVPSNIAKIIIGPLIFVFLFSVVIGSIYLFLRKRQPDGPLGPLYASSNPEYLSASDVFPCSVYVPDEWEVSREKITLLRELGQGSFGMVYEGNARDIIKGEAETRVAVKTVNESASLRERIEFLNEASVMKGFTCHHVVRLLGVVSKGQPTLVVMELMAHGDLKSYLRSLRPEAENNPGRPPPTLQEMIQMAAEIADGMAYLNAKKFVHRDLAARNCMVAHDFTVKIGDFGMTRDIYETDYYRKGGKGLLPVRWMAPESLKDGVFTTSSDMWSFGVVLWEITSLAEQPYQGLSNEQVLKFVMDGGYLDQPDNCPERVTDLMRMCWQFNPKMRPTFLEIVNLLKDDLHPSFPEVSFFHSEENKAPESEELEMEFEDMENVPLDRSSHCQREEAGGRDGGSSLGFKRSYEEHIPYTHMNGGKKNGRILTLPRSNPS

Binder | Kd [1] [nM] | Average EC50 (nM), IGF-1 receptor stimulation (cell based assay) [2] [nM] | Average EC50 (nM), insulin receptor stimulation (cell based assay) [3] [nM] | Ratio (EC50 Insulin receptor/EC50 IGF-1 receptor) [3] | Fold reduction, as compared to Increlex [4] [fold] | Affinity fold reduction vs Increlex [5] [fold] | Average EC50 (nM), insulin receptor CBA [5] [nM] | EC50 (nM), insulin receptor CBA, single run [5] [nM] | EC50 (nM), insulin receptor CBA, single run (1st value column) [5] [nM] | EC50 (nM), insulin receptor CBA, single run (2nd value column) [5] [nM] | EC50 (nM), insulin receptor CBA, single run (3rd value column) [5] [nM] | Kd [6] [nM] | Kd [7] [nM] | Kd [8] [nM] | Average EC50 (PathHunter IGF1R bioassay) [10] [nM] | Average fold reduction, as compare to Increlex [10] [fold] | EC50, CBA#1 (PathHunter IGF1R bioassay) [10] [nM] | EC50, CBA#2 (PathHunter IGF1R bioassay) [10] [nM] | EC50, CBA#3 (PathHunter IGF1R bioassay) [10] [nM] | EC50, CBA#5 (PathHunter IGF1R bioassay) [10] [nM] | other results
MOD-1301-3 (IGF1-CTPx3) (ligand, Active (mature) protein without signal peptide and first propeptide; also called V3; variant 3) not shown | 1.72 | 1.82 | 224 | 123 | 12.8 | 13.4 | 200 | 199 | 212 | 82.7 | 164 | 4.08 | 1.39 | 2.4 | 5.23 | 11.2 | 5.78 | 3.86 | 5.75 | 5.52 | EC50 (nM), insulin receptor CBA, single run (5th value column) [5]: 340 nM; Average EC50 (IGF1R CBA, selected clones) [9]: 1.82 nM; Average fold reduction, as compare to Increlex [9]: 2.67 fold; EC50, CBA #8.1 (IGF1R CBA, selected clones) [9]: 1.9 nM; EC50, CBA #8.2 (IGF1R CBA, selected clones) [9]: 1.76 nM; EC50, CBA #9.1 (IGF1R CBA, selected clones) [9]: 1.88 nM; EC50, CBA #9.2 (IGF1R CBA, selected clones) [9]: 1.76 nM; Average EC50, insulin receptor CBA (selected clones) [11]: 224 nM; EC50, insulin receptor CBA #4.1 (selected clones) [11]: 260 nM; EC50, insulin receptor CBA #4.2 (selected clones) [11]: 258 nM; EC50, insulin receptor CBA #5.1 (selected clones) [11]: 170 nM; EC50, insulin receptor CBA #5.2 (selected clones) [11]: 208 nM; Fold reduction (insulin receptor CBA) [11]: 7.9 fold
MOD-1301-2 (IGF1-CTPx4) (ligand, Active (mature) protein without signal peptide and first propeptide; also called V2; variant 2) not shown | 1.67 | 2.41 | 387 | 161 | 9.9 | 19.5 | 292 | 177 | 238 | 514 | 200 | 2.56 | 1.33 | 1.85 | 4.21 | 9 | 4.38 | 2.63 | 5.62 | 4.22 | EC50 (nM), insulin receptor CBA, single run (5th value column) [5]: 332 nM; Average EC50 (IGF1R CBA, selected clones) [9]: 2.41 nM; Average fold reduction, as compare to Increlex [9]: 3.53 fold; EC50, CBA #8.1 (IGF1R CBA, selected clones) [9]: 2.39 nM; EC50, CBA #8.2 (IGF1R CBA, selected clones) [9]: 1.63 nM; EC50, CBA #9.1 (IGF1R CBA, selected clones) [9]: 2.64 nM; EC50, CBA #9.2 (IGF1R CBA, selected clones) [9]: 2.98 nM; Average EC50, insulin receptor CBA (selected clones) [11]: 387 nM; EC50, insulin receptor CBA #4.1 (selected clones) [11]: 509 nM; EC50, insulin receptor CBA #4.2 (selected clones) [11]: 430 nM; EC50, insulin receptor CBA #5.1 (selected clones) [11]: 314 nM; EC50, insulin receptor CBA #5.2 (selected clones) [11]: 296 nM; Fold reduction (insulin receptor CBA) [11]: 13.7 fold
MOD-1301-1 (CTPx3-IGF1) (ligand, Active (mature) protein without the hGH signal peptide; also called V1) not shown | 2.57 |  |  |  | 15.3 |  |  |  |  |  |  | 4.07 | 1.98 | 2.87 | 6.2 | 13.3 | 5.76 | 4.32 | 6.6 | 8.14 | 
MOD-1301-4 (CTP-IGF1-CTPx2) (ligand, Active (mature) protein without the hGH signal peptide; also called V4) not shown | 3.42 |  |  |  | 19.4 |  |  |  |  |  |  | 4.94 | 2.53 | 3.63 | 7.7 | 16.5 | 5.96 | 7.83 | 8.17 | 8.82 | times less affinity than Increlex [12]: ~21 fold
MOD-1301-5 (CTPx2-IGF1-CTPx4) (ligand, Active (mature) protein without the hGH signal peptide; also called V5) not shown | 3.84 |  |  |  | 22.1 |  |  |  |  |  |  | 5.77 | 2.8 | 4.14 | 9.76 | 20.9 | 6.98 | 7.09 | 9.37 | 15.6 | times less affinity than Increlex [12]: ~21 fold

Like-named read-outs stand apart in the source and are kept apart here.
